# In PubChem BioAssay AID504339 (National Center for Advancing Translational Sciences (NCATS), 2011):
# The campaign covered roughly 390,000 compounds. About 17,000 (4.4%) were called active. Inconclusive results, whose numbers are uncertain, are shown with a selection of clear calls. Calls follow the shape of the dose curve; as a rule, active = well fitted inhibition curve with a large enough effect; inconclusive = small, poorly fitted or top-dose-only effect; inactive = no such curve, though single readings can be large or run the other way. Potencies beside an inconclusive call are fits to weak or partial responses and may not hold up.
# Molecular target: Lysine-specific demethylase 4A (Homo sapiens) (UniProt O75164)
# UniProt O75164, sequence (O75164 whole entry, looked up, the tested form may be a part): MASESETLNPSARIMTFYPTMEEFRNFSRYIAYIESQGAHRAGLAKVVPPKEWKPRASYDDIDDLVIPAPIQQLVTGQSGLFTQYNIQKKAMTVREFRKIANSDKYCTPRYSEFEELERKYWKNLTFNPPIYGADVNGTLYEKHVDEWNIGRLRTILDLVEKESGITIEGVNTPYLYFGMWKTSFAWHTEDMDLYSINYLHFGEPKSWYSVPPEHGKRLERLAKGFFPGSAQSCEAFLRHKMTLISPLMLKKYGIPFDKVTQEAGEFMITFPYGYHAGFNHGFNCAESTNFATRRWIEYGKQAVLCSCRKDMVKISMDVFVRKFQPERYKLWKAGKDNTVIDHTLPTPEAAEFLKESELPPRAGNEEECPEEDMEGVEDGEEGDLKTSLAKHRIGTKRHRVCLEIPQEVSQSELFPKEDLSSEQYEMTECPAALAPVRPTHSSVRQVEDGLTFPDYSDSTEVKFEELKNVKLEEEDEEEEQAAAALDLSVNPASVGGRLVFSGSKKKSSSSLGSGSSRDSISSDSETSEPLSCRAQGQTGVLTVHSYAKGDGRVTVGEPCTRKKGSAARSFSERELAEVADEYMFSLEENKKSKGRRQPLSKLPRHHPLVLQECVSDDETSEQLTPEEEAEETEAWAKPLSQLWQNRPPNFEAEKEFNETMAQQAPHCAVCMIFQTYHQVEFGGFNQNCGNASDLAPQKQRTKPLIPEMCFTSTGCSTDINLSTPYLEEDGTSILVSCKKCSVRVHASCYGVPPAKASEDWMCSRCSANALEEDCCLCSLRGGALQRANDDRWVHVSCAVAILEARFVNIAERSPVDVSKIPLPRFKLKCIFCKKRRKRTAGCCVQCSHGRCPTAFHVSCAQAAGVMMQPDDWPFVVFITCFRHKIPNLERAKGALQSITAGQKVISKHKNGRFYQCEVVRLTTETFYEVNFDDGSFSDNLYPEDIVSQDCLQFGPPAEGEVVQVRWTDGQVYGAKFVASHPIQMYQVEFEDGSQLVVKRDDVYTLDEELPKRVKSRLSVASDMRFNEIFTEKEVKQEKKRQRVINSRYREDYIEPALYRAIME
# Experiment: qHTS Assay for Inhibitors of JMJD2A-Tudor Domain; also: nearly all actives have a fitted effect of over 50% in size
# Conditions: AlphaScreen JMJD2A-Tudor / H3K4me3 peptide binding; series mostly up to 114 µM
# Potency is read from the fitted curve at half-maximal effect; tags tell the direction and shape of the fitted curve.
row,SMILES,Potency
1,Cc1ccc(C(C2C(=O)CC(C)(C)CC2=O)C2C(=O)CC(C)(C)CC2=O)s1,inactive
2,CCOc1cc(N2CCOCC2)c(OCC)cc1NS(=O)(=O)c1ccc(Cl)s1,"inconclusive: 79.4 µM [inhibitor, partial curve]"
3,C=CCn1c(COc2ccc(Cl)cc2)nnc1SCC(=O)c1c(N)n(C)c(=O)n(C)c1=O,inactive
4,CCc1nc2oc(C(=O)c3ccccc3)c(N)c2c2c1COC(C)(C)C2,inactive
5,COc1ccc(C2c3c(n(C)c4ccccc34)C(=O)N2CC(=O)Nc2ccccc2Cl)cc1 (stereo not given),inactive
6,O=C1CC(=O)N(Cc2ccco2)C(=O)N1,active: 4.47 µM
7,Cc1nnc(Sc2cc(NCCO)c([N+](=O)[O-])c3nonc23)s1,"inconclusive: 17.8 µM [inhibitor, full curve]"
8,O=C1c2ccc([N+](=O)[O-])cc2NC(c2ccco2)N1/N=C/c1ccco1 (stereo not given),"inconclusive: 11.2 µM [inhibitor, full curve, poor fit]"
9,COc1ccc(C2C(C#N)=C(N)N(c3sc4c(c3C#N)CCCC4)C3=C2C(=O)CC(C)(C)C3)cc1 (stereo not given),"inconclusive: 56.2 µM [inhibitor, partial curve]"
10,COc1ccc(NCc2nnc(SCc3ccccc3)n2-c2ccc(OC)cc2)cc1,active: 50.1 µM
11,O=C(COc1ccc([N+](=O)[O-])cc1)NNC(=S)NC(=O)c1ccc(Br)cc1,active: 50.1 µM
12,CCOc1ccc(NC(=O)CN(C)C(=O)C2CC(=O)N(c3cccc(SC)c3)C2)cc1OCC (stereo not given),inactive
13,O=C(N1CCOCC1)N1CCN(S(=O)(=O)c2ccccc2)C1,"inconclusive: 100 µM [inhibitor, partial curve]"
14,COc1cc(OC)cc(C(=O)NCC(=O)N2CCN(c3ccc(O)cc3)CC2)c1,active: 22.4 µM
15,CCc1cc(=O)oc2cc3occ(-c4ccc(OC)c(F)c4)c3cc12,inactive
16,COc1ccc(-c2cc(C3CCN(c4ccc(C(C)=O)cc4[N+](=O)[O-])CC3)[nH]n2)cc1,"inconclusive: 10 µM [inhibitor, full curve]"
17,CCOc1cc(N2CCOCC2)c(OCC)cc1NC(=O)c1cccc(S(=O)(=O)N2CCOCC2)c1,"inconclusive: 39.8 µM [inhibitor, full curve, poor fit]"
18,O=C(COC(=O)c1ccc(O)cc1)Nc1ccc(N2CCCCC2)cc1,"inconclusive: 79.4 µM [inhibitor, partial curve]"
19,Cc1nc([N+](=O)[O-])c(Sc2nc3ccccc3n2C)n1Cc1ccccc1,inactive
20,Cc1ccc(NS(=O)(=O)c2ccc(NC(=O)C3CC3)cc2)cc1C,"inconclusive: 4.47 µM [inhibitor, single point]"
